From the supplement of paper PMC10126150
Values marked as one replicate rest on one cluster of the flow cell; about a third of the high ones do not repeat.

System: ATP
Assay: switch fluorescence ratio, 500 uM ATP over buffer (Cy3 cluster intensity, sum of 5 cycles each) (fold (ratio)); higher = stronger signal-on switching upon ATP binding; sequences stand for … in TCGTCGGCAGCGTCAGATGTGTATAAGAGACAGTTTTTTTTTTTTTTTTTTTTTTTTT…TC
Settings: aptamer strand: ATP DNA aptamer (quencher-CACCTGGGGGAGTATTGCGGAGGAAGG + anchor), 100 nM annealed; ATP concentration: 500 uM; one replicate
Procedure, shortened: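 Exposure to 500 uM ATP lasted 15 min at 22 °C before imaging, and a selection-buffer image was taken beforehand, for Cy3-labelled switching-strand clusters on a modified Illumina MiSeq flow-cell annealed to 100 nM quencher-labelled ATP aptamer. Five buffer/ATP cycles were run with NaOH stripping and re-annealing between them. The fluorescence ratio per cluster is summed target-cycle over summed buffer-cycle Cy3 intensity, averaged per switch-domain sequence. Clusters outside 100-1000 RFU were excluded.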

| Sequence | switch fluorescence ratio |
| --- | --- |
| AGCTGTTTAA | 0.981 |
| TGACATCAAA | 1.01 |
| GGTAGAGCAG | 0.996 |
| CTTCCTGGGG | 1.3 |
| CGAAGAATGG | 1.02 |
| TATCGATCCG | 0.989 |
| ATGTGGTT | 1 |
| CATTTGGTGG | 1.06 |
| CACGTGATAC | 3.75 |
| TCTTCAGGAG | 1.19 |
| CGTCGGTGGG | 1.02 |
| CGGGATCTTG | 0.967 |
| AAAGGCCTAG | 1.02 |
| AACATCAGCC | 1.09 |
| TTTCCCCGTT | 1.09 |
| AATGGACAGC | 1.04 |
| GCATTGGTAG | 1.04 |
| CAAGGGCGGT | 1.01 |
| GGCGTAAAGG | 1.01 |
| GGGCCGGAAG | 1.02 |
| ATATGTACA | 1.03 |
| TTGCTATCGG | 0.975 |
| CGTGTGTGCC | 0.988 |
| ATGGCCAGGC | 0.973 |
| TTGGCAAGGG | 1.03 |
| TCTAGACTTT | 1 |

| Sequence | switch fluorescence ratio |
| --- | --- |
| CCCGTAGACT | 1.5 |
| CTTATAATAA | 1.02 |
| AATAGAGTGT | 0.972 |
| CGATCACAAA | 1.05 |
| GACCAAACGT | 1.44 |
| TGGGTTCT | 1 |
| ATCTGCTCCT | 1 |
| ACGACTAATT | 1.09 |
| CGGTGGATAG | 1.02 |
| ACTGATTTAA | 1.03 |
| TATCGGCCCT | 1.11 |
| TAGCCTTCAT | 1.03 |
| GTGTCCCGCA | 0.972 |
| TTTAATAGC | 0.964 |
| TCAAGCTTAT | 1.01 |
| GTGGGGACAT | 0.972 |
| TAGTGAAGC | 0.971 |
| AGGGACTATG | 1.01 |
| TGATAGCCGG | 1.02 |
| AGCGGGAATT | 0.909 |
| GAGCTACATT | 1.05 |
| GAGTTAACGA | 1.01 |
| TAAACGCGAC | 2.34 |
| TGCGTACTCT | 1.1 |
| GACTCAGGTG | 2.79 |
| CAGGGCCCGT | 1.02 |

| Sequence | switch fluorescence ratio |
| --- | --- |
| GCTTGGGTGG | 0.965 |
| TAAGGGTTGT | 1.02 |
| GCACCTGATT | 0.997 |
| GTCCACTCGG | 0.967 |
| TTTATGGTCA | 1.01 |
| CGTTACTT | 1.01 |
| GTTATTTCGG | 0.981 |
| CCGGTCATCG | 0.976 |
| CCATATTGAT | 1.03 |
| CTAACGCGGA | 1.05 |
| CGTGTTGGTT | 0.995 |
| ACGGTTATAA | 1.05 |
| GAAGTGTCGC | 1.01 |
| AAATTGTTCT | 0.97 |
| AGGCACCGTC | 1.02 |
| CCGGTTATAG | 2.04 |
| CGGTATAAT | 0.959 |
| TCGGCAAAC | 2.32 |
| TTTGCAGCGA | 1.04 |
| TATCTGGTCT | 1.03 |
| AGGAGCTAGG | 0.997 |
| TCCGGGGAGG | 1.02 |
| CGTGCGCGCT | 0.994 |
| ACAAGGGGAC | 1.02 |
| CGCTTGGGTT | 0.983 |
| ATCGTCTATA | 0.978 |

| Sequence | switch fluorescence ratio |
| --- | --- |
| ATATAATGTG | 1.04 |
| TGCAGCAAGG | 1.83 |
| AGCCGGAGGA | 0.987 |
| GCACGAGAGA | 1.01 |
| CGTTCGTTAT | 1.1 |
| AGCTTGGATC | 1 |
| CATAAATACA | 1.05 |
| ACCTATTTGA | 1.02 |
| TAGGAACATT | 1.03 |
| GTTCGAGGG | 0.964 |
| GTAGTGATGT | 1.04 |
| GAAGCTTCAT | 1.03 |
| TGCCAGAGGA | 0.97 |
| GATTTATCCG | 0.987 |
| TTGTGGGTGG | 0.994 |
| CGCGAGGGTG | 1.19 |
| ATATCGGTTC | 0.949 |
| AGTTAACAGG | 0.967 |
| TCTTGTAGGT | 1.02 |
| GTGCCTCACC | 1.01 |
| GCTCTAGTGC | 1.04 |
| GCTGGTGACT | 1.01 |
| GGTGGCCAGT | 0.979 |
| TCCAATCTAG | 0.992 |
| CTGTATTTG | 0.974 |
| TCTAGCGTTT | 1.02 |

| Sequence | switch fluorescence ratio |
| --- | --- |
| TAACAGAACA | 1.02 |
| TCGTTGTGAT | 1.02 |
| TTACCTTGGA | 1.01 |
| GCGATGCGGC | 1.14 |
| GGACCGTCCC | 1.2 |
| AAAACAACTA | 0.988 |
| GGATAGAGGG | 1.05 |
| AGTATCATGG | 1.03 |
| AATTTCGAGC | 0.999 |
| GATCGATGGG | 0.975 |
| TGGGATCGGG | 0.985 |
| CTCAGGGAG | 1 |
| TATCAATCCG | 1.03 |
| CGTTCAAGAG | 1.01 |
| TCCTATCCGG | 1.05 |
| ACTTGTGCTC | 0.998 |
| TCGTTAACTT | 0.999 |
| ACCCGCGGAT | 1.17 |
| TGGCCTTTAG | 1.03 |
| TCTCAGCCAT | 1.13 |
| TAAAGATTAC | 1.05 |
| TGTGGGCCCT | 0.988 |
| TCTCGCGGCC | 1.11 |
| CGATTAGACT | 1.01 |
| ATTCATATTC | 1.03 |
| TCGTCTTGGC | 0.982 |

| Sequence | switch fluorescence ratio |
| --- | --- |
| ACTGCTCTGC | 1.01 |
| CGATTCACCG | 0.984 |
| GTTTACCGAT | 0.989 |
| GCGAGTCCGG | 1.11 |
| GATGTGTTTA | 1.02 |
| TCCTGTTCGA | 0.995 |
| CGATGGTAAC | 1.11 |
| GATGGGTTAC | 1.07 |
| CTTCTTTTCC | 1.03 |
| GGTAACTAGC | 0.94 |
| CGGGCGTGCG | 0.959 |
| AGCTATAGCG | 0.962 |
| AGTTTGGG | 0.977 |
| ATCTCCGTTT | 1.14 |
| GGTGCCTAT | 0.992 |
| ATTACATACT | 1.41 |
| CGCAGGGTAT | 1.04 |
| CCGGCCGAGT | 1.05 |
| TTTATATTAC | 1.08 |
| GGGCAATC | 2.88 |
| AGCTTCATCC | 2.38 |
| ATGTTAATTA | 0.982 |
| TGCCTCGCGC | 1.01 |
| ATTAAGAGCA | 1.03 |
| TACTCTAGA | 1.13 |
| TCTCATGACT | 1.04 |

| Sequence | switch fluorescence ratio |
| --- | --- |
| GCGACTGAAC | 1.21 |
| GATCTCCTTT | 0.975 |
| GCATCAGATT | 1 |
| TTACTATGGA | 0.992 |
| CCAGTCGGG | 0.991 |
| TCCCTAGTGA | 1.14 |
| CGAAAGGAGC | 1.04 |
| ATCCTGCTCT | 1 |
| GAGCGGTAAG | 0.991 |
| CAGCCTTGGG | 0.962 |
| AGTCTATGTT | 0.989 |
| GGTTTAAGCT | 1.02 |
| TCGAATGCTC | 1.18 |
| AACACCGGC | 1.16 |
| CGCGTTAGC | 0.985 |
| TGATGTTGGG | 0.982 |
| AACACAGACC | 1.13 |
| TCAGGGTTCG | 0.955 |
| GGGAAAATCG | 0.969 |
| ATCATGTTCT | 0.983 |
| GCTAGTTTCT | 0.994 |
| TCACAGGACT | 1.08 |
| GGTGCTGAAA | 0.993 |
| AAAACGTTAT | 1.05 |
| ACTCCAGCTT | 2.55 |
| TCGGAAGCCG | 1.02 |

| Sequence | switch fluorescence ratio |
| --- | --- |
| ATAGAAATGT | 1.05 |
| TGCTGCGTCG | 0.981 |
| ATATTCTGAT | 0.962 |
| TGGTTTGCGA | 1.01 |
| GGGTAGAT | 0.991 |
| TAAAATATAG | 1.05 |
| TTACAAGAGA | 0.982 |
| CCTATAGACA | 1.05 |
| GTAGTATGG | 0.962 |
| TGGAAAGGT | 0.959 |
| TGACCTTAGC | 1.11 |
| AAGATGTGCA | 0.908 |
| TGCCGGCCTG | 1.02 |
| CCGTGTTACT | 3.05 |
| ATTGGTTT | 1.01 |
| ACGTCCTTGG | 1.04 |
| TGGAGGCACG | 1.05 |
| TGCTGGGCAC | 1.02 |
| ATATAGGAGA | 1.04 |
